Variants at the background level are over-represented here.
B1: TPR 5TU (parent)
chain: GGAUCUUCUCGAUCUAACAAAAAAGACAAAUCUGCCACAAAGCUUGAGAGCAUCUUCGGAUGCAGAGGCGGCAGCCUUCGGUGGCGCGAUAGCGCCAACGUUCUCAACUAUGACACGCAAAACGCGUGCUCCGUUGAAUGGAGUUUAUCAUG

Variants of: B1
Experiment: polymerase ribozyme fitness, log enrichment relative to wild type (log ratio); higher = more active; in vitro selection for triplet polymerase activity
Summary of the method: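 Frozen incubation at −7 °C formed the core of a single, triplicate in vitro selection round applied to PCR-built, transcribed mutant libraries of each subunit of a heterodimeric triplet polymerase ribozyme. Extended constructs were gel-excised, captured with streptavidin beads and amplified by RT-PCR, and input and output libraries were Illumina-sequenced with a filter of ≥10 input reads and ≥1 read per output. Fitness is the logarithm of genotype enrichment relative to wild-type enrichment, with inverse-variance-weighted replicate averaging, and the logarithm is base 2.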

A26U C57U C87U A106U G140A and A26U C57U C118G U144C cannot be ordered by “polymerase ribozyme fitness (log ratio)” value: at most -4.2 for the first, at most -4.2 for the second.

A26U C69G A91G and A26U C69U U90G A107U cannot be ordered by “polymerase ribozyme fitness (log ratio)” value: at most -4.2 for the first, at most -4.2 for the second.

A26U C75A A91U A110U G136U and A26U C76A C87U G92U G140U cannot be ordered by “polymerase ribozyme fitness (log ratio)” value: at most -4.2 for the first, at most -4.2 for the second.

Compared with A26U C79G C103A C149A, A26U C85A is higher in “polymerase ribozyme fitness (log ratio)” value: at most -4.2 for the first, -2.68 for the second.

A26U C85A C114U and A26U C85G A113G A142U cannot be ordered by “polymerase ribozyme fitness (log ratio)” value: at most -4.2 for the first, at most -4.2 for the second.

First: A26U C87U
Second: A26U C93U G117U A137C
The “polymerase ribozyme fitness (log ratio)” value of the first is higher: -1.74 for the first, at most -4.2 for the second.

A26U C132G and A26U G34U cannot be ordered by “polymerase ribozyme fitness (log ratio)” value: at most -4.2 for the first, at most -4.2 for the second.

A26U G34U A73U A91U and A26U G42C U45C cannot be ordered by “polymerase ribozyme fitness (log ratio)” value: at most -4.2 for the first, at most -4.2 for the second.

A26U G46U G58A A73U C85G U111G and A26U G50C A91C G128U cannot be ordered by “polymerase ribozyme fitness (log ratio)” value: at most -4.2 for the first, at most -4.2 for the second.

A26U G59U G141A A150C and A26U G62A G84A C105A A106C G126A cannot be ordered by “polymerase ribozyme fitness (log ratio)” value: at most -4.2 for the first, at most -4.2 for the second.

Going from A26U G71C G86U U109G to A26U G84A C118A, the “polymerase ribozyme fitness (log ratio)” value rises from at most -4.2 to -3.09.

A26U G84U G86U G136U U148G and A26U G94C C96U C103G U151G cannot be ordered by “polymerase ribozyme fitness (log ratio)” value: at most -4.2 for the first, at most -4.2 for the second.

A26U G140C and A26U U31A G86U A147C cannot be ordered by “polymerase ribozyme fitness (log ratio)” value: at most -4.2 for the first, at most -4.2 for the second.

A26U U31C A39U U90C and A26U U31G G42C C93G A137G cannot be ordered by “polymerase ribozyme fitness (log ratio)” value: at most -4.2 for the first, at most -4.2 for the second.

A26U U33A G81A A110C G133U and A26U U33G G92A C95U U134G cannot be ordered by “polymerase ribozyme fitness (log ratio)” value: at most -4.2 for the first, at most -4.2 for the second.

A26U U44A C93G C125U and A26U U44A U53C G62C G68C C69U C93U A106U A142U cannot be ordered by “polymerase ribozyme fitness (log ratio)” value: at most -4.2 for the first, at most -4.2 for the second.

A26U U44A U56A G80A C87G A97G G152A and A26U U44A U61A C116U cannot be ordered by “polymerase ribozyme fitness (log ratio)” value: at most -4.2 for the first, at most -4.2 for the second.

A26U U45A C85G U151G and A26U U45A U55G G84C A91G A150C cannot be ordered by “polymerase ribozyme fitness (log ratio)” value: at most -4.2 for the first, at most -4.2 for the second.

First: A26U U53A
Second: A26U U53A A91U U104A
The “polymerase ribozyme fitness (log ratio)” value of the first is higher: -1.58 for the first, at most -4.2 for the second.

A26U U53A C76A A89C G92A G126U C132G and A26U U55A C79A U90A U127G U146A cannot be ordered by “polymerase ribozyme fitness (log ratio)” value: at most -4.2 for the first, at most -4.2 for the second.

Going from A26U U56A A98G to A26U U56A C93U, the “polymerase ribozyme fitness (log ratio)” value falls from -1.83 to -3.4.

Compared with A26U U56A U61A C69G G94A C96A A150U, A26U U56A U101G A115G is higher in “polymerase ribozyme fitness (log ratio)” value: at most -4.2 for the first, -3.42 for the second.

A26U U56G G92C A113G and A26U U61A U90G C99U G124U cannot be ordered by “polymerase ribozyme fitness (log ratio)” value: at most -4.2 for the first, at most -4.2 for the second.

Compared with A26U U82A A106C, A26U U82A C85U G112U is lower in “polymerase ribozyme fitness (log ratio)” value: -3.93 for the first, at most -4.2 for the second.

Going from A26U U134A to A26U U151C, the “polymerase ribozyme fitness (log ratio)” value falls from -3.96 to at most -4.2.

C27A A28G A40C A41U U148C and C27A A28G C43A G58C C95U C105G cannot be ordered by “polymerase ribozyme fitness (log ratio)” value: at most -4.2 for the first, at most -4.2 for the second.

C27A A28U C38U G50U C87A A97U G100U C103G U144C and C27A A28U U53G G81A C87U A119G G140A A142G cannot be ordered by “polymerase ribozyme fitness (log ratio)” value: at most -4.2 for the first, at most -4.2 for the second.

C27A A29C A52U G59U C93G C116U and C27A A29G C57A G83C C131G cannot be ordered by “polymerase ribozyme fitness (log ratio)” value: at most -4.2 for the first, at most -4.2 for the second.

C27A A29G U33G C35A A60G C93G A97G A120U G133U U134G and C27A A29U A41U A97G A121U cannot be ordered by “polymerase ribozyme fitness (log ratio)” value: at most -4.2 for the first, at most -4.2 for the second.

Compared with C27A A29U A91G C118U U135G, C27A A30C A89G G92A C105U G140U is higher in “polymerase ribozyme fitness (log ratio)” value: at most -4.2 for the first, -3.96 for the second.

C27A A37C C43U G70A C87A and C27A A40G U55A G83C cannot be ordered by “polymerase ribozyme fitness (log ratio)” value: at most -4.2 for the first, at most -4.2 for the second.

C27A A40U G83U C87G A138U and C27A A47U U56A C63G G80A U90C C96G U146G cannot be ordered by “polymerase ribozyme fitness (log ratio)” value: at most -4.2 for the first, at most -4.2 for the second.

C27A A49C G59C G74C G136U and C27A A49C G68C C79A G81A C87A C105U C149G cannot be ordered by “polymerase ribozyme fitness (log ratio)” value: at most -4.2 for the first, at most -4.2 for the second.

C27A A49C G92U A113U G143A and C27A A49C U53G A73G C95A C114G cannot be ordered by “polymerase ribozyme fitness (log ratio)” value: at most -4.2 for the first, at most -4.2 for the second.

C27A A49C U90G U145C and C27A A49G G80A C85G G86C A137C C149G cannot be ordered by “polymerase ribozyme fitness (log ratio)” value: at most -4.2 for the first, at most -4.2 for the second.

C27A A52G U56G C93A C123A and C27A A52U C57A A73G G86A cannot be ordered by “polymerase ribozyme fitness (log ratio)” value: at most -4.2 for the first, at most -4.2 for the second.

C27A A60G C103G and C27A A60G G67C C96U cannot be ordered by “polymerase ribozyme fitness (log ratio)” value: at most -4.2 for the first, at most -4.2 for the second.

C27A A73C C93A A98C C149U and C27A A91C A120G G143C U145A cannot be ordered by “polymerase ribozyme fitness (log ratio)” value: at most -4.2 for the first, at most -4.2 for the second.

C27A C32U C35G C54G G68A C93U A107G C108U and C27A C36G A47C G48C C93A U111G cannot be ordered by “polymerase ribozyme fitness (log ratio)” value: at most -4.2 for the first, at most -4.2 for the second.

C27A C43G U55A C69U and C27A C43U C76U A89G G92A C99A U144A cannot be ordered by “polymerase ribozyme fitness (log ratio)” value: at most -4.2 for the first, at most -4.2 for the second.

C27A C51A G58U C95U C105G A110C U134C A142G and C27A C54A C69U C75G C96U G141A cannot be ordered by “polymerase ribozyme fitness (log ratio)” value: at most -4.2 for the first, at most -4.2 for the second.

For C27A C54A G83A C105G G124A U134A U144G, the “polymerase ribozyme fitness (log ratio)” value was at most -4.2.
